The text below walks through data of PMC4336329 (PLoS ONE, 2015).

Screen size: about 310,000 compounds; about 2,200 (0.71%) showed an effect of 50% or more. Effects have a minus sign here. The list shows a part of the results.

For this assay, the target named is human ether-à-go-go-related gene (hERG) potassium channel (human, UniProt Q12809). Put plainly: primary screen, population patch clamp on CHO cells stably expressing hERG.
human ether-à-go-go-related gene (hERG) potassium channel, sequence (Q12809 whole entry, looked up): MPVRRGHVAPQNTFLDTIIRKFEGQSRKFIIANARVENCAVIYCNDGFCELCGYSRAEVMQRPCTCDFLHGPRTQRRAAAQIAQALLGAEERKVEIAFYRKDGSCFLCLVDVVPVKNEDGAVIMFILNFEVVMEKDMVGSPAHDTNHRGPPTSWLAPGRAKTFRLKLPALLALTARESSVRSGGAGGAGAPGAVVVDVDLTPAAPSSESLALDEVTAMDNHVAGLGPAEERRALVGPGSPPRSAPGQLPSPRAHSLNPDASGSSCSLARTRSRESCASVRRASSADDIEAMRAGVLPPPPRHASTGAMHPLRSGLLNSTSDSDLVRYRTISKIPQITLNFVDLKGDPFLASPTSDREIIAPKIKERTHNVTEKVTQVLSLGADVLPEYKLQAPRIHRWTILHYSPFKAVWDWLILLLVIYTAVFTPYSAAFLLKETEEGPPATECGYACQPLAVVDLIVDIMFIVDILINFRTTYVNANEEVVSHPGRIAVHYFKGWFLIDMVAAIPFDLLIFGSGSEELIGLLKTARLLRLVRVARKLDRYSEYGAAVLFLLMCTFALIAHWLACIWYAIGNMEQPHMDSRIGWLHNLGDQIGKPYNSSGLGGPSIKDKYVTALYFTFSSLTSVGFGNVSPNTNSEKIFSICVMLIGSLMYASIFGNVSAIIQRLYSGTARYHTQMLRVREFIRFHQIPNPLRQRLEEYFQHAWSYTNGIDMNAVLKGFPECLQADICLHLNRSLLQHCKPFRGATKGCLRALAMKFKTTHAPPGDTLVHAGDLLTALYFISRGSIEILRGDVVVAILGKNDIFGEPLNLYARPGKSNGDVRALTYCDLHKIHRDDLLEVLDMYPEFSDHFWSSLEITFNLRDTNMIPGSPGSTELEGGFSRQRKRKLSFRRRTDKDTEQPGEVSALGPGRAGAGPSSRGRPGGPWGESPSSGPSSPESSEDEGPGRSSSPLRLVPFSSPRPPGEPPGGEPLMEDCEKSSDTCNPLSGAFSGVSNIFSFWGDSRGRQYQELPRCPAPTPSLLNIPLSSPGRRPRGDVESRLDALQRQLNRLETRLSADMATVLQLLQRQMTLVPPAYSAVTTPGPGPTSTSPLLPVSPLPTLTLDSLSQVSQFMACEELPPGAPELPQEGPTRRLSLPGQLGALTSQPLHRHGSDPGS
With `COc1ccccc1NC(=O)/C=C/c1ccc2c(c1)OCO2`, the “hERG current change (%, negative = inhibition) at 1uM” value was 0.155%.
For `CCN(C(=O)COC(=O)CN(C)S(=O)(=O)c1ccc(NC(C)=O)cc1)C1CCS(=O)(=O)C1` (stereo not drawn) the value was 16.8%.
For `CN(C)c1ccc(/C=C2\C(=N)N3N=C(CC(=O)N4CCCC4)SC3=NC2=O)cc1Br` the value was 12.1%; for `O=C(O)CCN1C(=O)C2C3c4ccccc4C(c4ccccc43)C2C1=O` (stereo not drawn), 5.36%.
For `CCOC(=O)C1(C(F)(F)F)N=C(C(F)(F)F)Nc2ccc(F)cc21` (stereo not drawn), the “hERG current change (%, negative = inhibition) at 1uM” value is on record as 3.69%.
Take `O=C(Cn1c(=S)[nH]c2ccccc2c1=O)N1CCc2ccccc2C1`: the “hERG current change (%, negative = inhibition) at 1uM” value was determined as 9.68%.
For `O=C1C2ON(c3ccccc3)C(c3cccnc3)C2C(=O)N1Cc1ccccc1` (stereo not drawn) the value was -1.58%.
For `Cc1ccccc1NC(=O)Cn1nnc2ccccc21` the value was 8.89%; for `CN(C(=O)/C=C/c1ccc2c(c1)OCO2)c1ccccc1`, 2.5%; for `C#CCNC(=O)C1=C[C@H](c2csc3ccccc23)C[C@H](OCc2ccc(CO)cc2)O1`, 15.1%.
Take `O=C(Cc1ccccc1[N+](=O)[O-])NNC(=O)Nc1ccc2c(c1)OCO2`: the “hERG current change (%, negative = inhibition) at 1uM” value is reported as -0.266%.
The value for `C#CCOCCOCCOCCNc1nc(N2CCOCC2)nc(N2CCN(C(=O)[C@H](Cc3ccc(O)cc3)n3cc([C@@H](N)C(C)CC)nn3)CC2)n1.Cl` (stereo partly drawn) was 7.76%; that for `O=C(COC(=O)c1cccnc1Cl)c1ccc2c(c1)OCCO2` was 7.33%.
For `COc1ccccc1CNC(=O)[C@@H]1CCCN1S(=O)(=O)c1ccc(C)cc1` the value was 4.65%; for `COc1c2c(cc3oc(=O)c4c5ccc(O)cc5oc4c13)OC(C)(C)CC2`, 17.1%; for `CCOc1ccc2nc(NC(=O)C3CCCN(S(=O)(=O)c4cccc5nonc45)C3)sc2c1` (stereo not drawn), 4.37%.
The value for `Cc1ccc2c(c1)c(C)c(C)n2CC(O)Cn1nc(C)c(Br)c1C` (stereo not drawn) was 8.65%; that for `O=C(NNC(=O)c1ccc(Oc2ccc(C3SCCS3)cc2)o1)c1ccc(Cl)cc1` was 12.9%; that for `O=C1OC(N2C(=O)CC[C@H]2C(=O)Nc2ccc3c(c2)OCO3)c2ccccc21` (stereo partly drawn) was 0.216%.
For `COC(=O)c1sc(NC(=O)c2cc(-c3ccccc3)nc3ccccc23)c(C#N)c1C`, the “hERG current change (%, negative = inhibition) at 1uM” value is listed as -6.75%.
For `CCCc1c(C(=O)N/N=C/c2cccc3ccccc23)nnn1-c1nonc1N` the value was 10.7%; for `CCOC(=O)C1CCN(C(=O)Cn2nc(CC)n3cccc3c2=O)CC1`, 12%; for `CCOC(=O)/C=C/c1nc(C(=O)OCC)c(C)c(=O)[nH]1`, 20.1%.
As to `CCC(C)N1C(=O)CCC1C(=O)NCCc1ccc(Cl)cc1` (stereo not drawn), the “hERG current change (%, negative = inhibition) at 1uM” value is 9.37%.
For `Cc1onc(-c2ccccc2)c1C(=O)NC(C)c1ccccc1` (stereo not drawn) the value was 11.4%; for `Cc1ccc(C)c(N2CC(O)(c3cccs3)[N+]3=C2CCCC3)c1.[Br-]` (stereo not drawn), 6.03%.
For `CCOC(=O)C1(Cc2ccc(OC)cc2)CCN(C(=O)CCc2cccnc2)CC1` the value was 2.84%; for `O=C(Cc1ccccc1)NCC(=O)OCC(=O)c1cccc([N+](=O)[O-])c1`, 7.87%; for `CN1CCN(C(=O)C2=C[C@@H](C3CCCCC3)C[C@@H](OCCCCO)O2)CC1`, 6.72%.
The value for `Cc1ccc(CN(C(=O)c2ccco2)C(C(=O)NC2CCCC2)c2cccnc2)cc1` (stereo not drawn) was 10.4%.
Turning to `Cn1c(Cn2cnc(Cl)c2Cl)nc2ccccc21`, the “hERG current change (%, negative = inhibition) at 1uM” value was -2.96%.
Regarding `CC(=O)Nc1cccc(NC(=O)c2cc(-c3cccnc3)nc3ccc(Cl)cc23)c1`, the “hERG current change (%, negative = inhibition) at 1uM” value was 5.96%.
Consider `COc1ccc(OC)c(NC(=O)COC(=O)/C=C/c2ccc(Cl)cc2)c1`, for which the “hERG current change (%, negative = inhibition) at 1uM” value is listed as -1.76%.
As to `COc1ccc(SC[C@H](Cc2ccccc2)N2CC[C@@H](C(C)(C)C)CCC2=O)cc1`, the “hERG current change (%, negative = inhibition) at 1uM” value stood at 16.5%.
For the molecule `COC(=O)CNC(=O)COC(=O)/C=C/c1cccs1`, the “hERG current change (%, negative = inhibition) at 1uM” value was determined as 10.4%.
For `COc1c(C)cccc1C(=O)NC(=S)Nc1ccccc1N1CCCC1`, the “hERG current change (%, negative = inhibition) at 1uM” value worked out at 18.6%.
For `CCc1ccc(NC(=O)C2CCN(S(=O)(=O)c3cccs3)CC2)cc1` the value was -30.6%; for `CC(C)(C)NC(=O)C(c1ccccc1)N(C(=O)c1ccco1)C1CC1` (stereo not drawn), -1.51%; for `O=C(COc1ccc(S(=O)(=O)N2CCCCC2)cc1)N1CCOCC1`, 10.3%.
For `CC(=O)N1CCN(C2=NC(=O)/C(=C/c3ccc(OS(=O)(=O)c4ccccc4)cc3)S2)CC1` the value was -3.09%.
The value for `O=C(CN1C(=O)NC(Cc2c[nH]c3ccccc23)C1=O)Nc1cccc(S(=O)(=O)N2CCCC2)c1` (stereo not drawn) was 11.6%.
For the molecule `CC1Cc2ccccc2N1C(=O)c1cnsn1` (stereo not drawn), the “hERG current change (%, negative = inhibition) at 1uM” value is 13.6%.
